According to PubChem BioAssay AID1963576 (National Center for Advancing Translational Sciences (NCATS), 2024):
The campaign covered roughly 46,000 compounds. About 60 (0.1%) were called active. Another 3% or so got no clear call; they are omitted. Calls come from the whole dose curve; as a rule, active = well fitted inhibition curve with a large enough effect; inconclusive = small, poorly fitted or top-dose-only effect; inactive = no such curve, though single readings can be large or run the other way. This is one part of the list.

assay: Primary qHTS assay for Inhibitors of ovarian cancer metastasis using an organotypic tumor microenvironment (TME) model.; note: nearly all actives have a fitted effect of over 65% in size;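 for Potency: count of GFP cancer cells still attached after washing and fixation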;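 for activity change, negative = inhibition: plate controls were DMSO wells for no effect and tomatine positive control wells for full effect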; conditions: SKOV3ip1-GFP adhesion/invasion on 3D omental model, fluorescence; series mostly up to 45.8 µM; activity change, negative = inhibition: at the top concentration
Outline: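 qHTS, 4-pt dose (0.36-46 umol/L); SKOV3ip1-GFP, 1,200 cells/well, no FBS; primary omental fibroblast/mesothelial co-culture 48 h pre-grown; 2 h RT + 16 h 37 C; PBS wash, 4% PFA; GFP count 488/509 nm.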
Potency is the fitted concentration of half-maximal effect.

SMILES | activity change, negative = inhibition | outcome | Potency
COC(=O)c1ccccc1NC(=O)Cc1nc(-c2ccc(OC)cc2)no1 | inactive: -9.13% |  | 
COc1cc2c(Nc3ccc(NC(=O)c4ccccc4)cc3)ncnc2cc1OCCCN1CCOCC1 | inactive: -5.43% |  | 
Cc1nn(CCC(=O)Nc2cccc(C#N)c2)c(C)c1S(=O)(=O)N1CCC(C)CC1 |  | inactive | 
O=C(O)c1ccc(CSc2nc3cccnc3n2Cc2cccc(F)c2)cc1 |  | inactive | 
CC(=O)Nc1ccc(NC(=O)c2c(-c3ccccc3)noc2C)cc1 |  | inactive | 
CCOc1cccc(C2Oc3nc(SC)nnc3-c3ccccc3N2C(C)=O)c1OC (configuration not stated) | inactive: -17.9% |  | 
O=C(CSc1nc2ccccc2n1Cc1cccc(C(F)(F)F)c1)NCc1ccccc1 | inactive: 1.59% |  | 
Cc1cc(C)cc(NC(=O)Cn2c(C)cc(C)c(C#N)c2=O)c1 | inactive: 29.6% |  | 
CC(=O)N1CCc2cc(CNS(=O)(=O)c3ccccc3C(F)(F)F)ccc21 |  | inactive | 
Cc1nn(CC(=O)NCc2ccco2)c(=O)c2nn(-c3ccccc3)c(C)c12 | inactive: -9.11% |  | 
COc1ccc(N2CCN(C(=O)c3ccc(CS(=O)c4cccc(C)c4)o3)CC2)cc1 (configuration not stated) | inactive: 17.3% |  | 
COc1ccc(Cl)cc1NC(=O)c1oc2ccc(S(=O)(=O)N3CCCCC3)cc2c1C | inactive: 3.01% |  | 
O=C(CSc1nc2c([nH]c3ccccc32)c(=O)n1-c1ccc(F)cc1)Nc1ccc2c(c1)OCO2 | inactive: -18% |  | 
Cc1ccc(S(=O)(=O)C(CNC(=O)C(=O)NCCc2ccc(F)cc2)c2cccs2)cc1 (configuration not stated) | inactive: -1.78% |  | 
COc1cc(NC(=O)CSc2ccc(-c3sc(C)nc3C)nn2)cc(OC)c1 | inactive: -8.03% |  | 
COC(=O)CC1Oc2ccc(Cl)cc2-n2cc(-c3ccc(C)cc3)nc21 (configuration not stated) |  | inactive | 
Nc1ncc(S(=O)(=O)N2CCN(c3ccccc3)CC2)cn1 | inactive: -5.77% |  | 
O=C(Nc1ccc(F)c(Cl)c1)C1CCN(c2ncccn2)CC1 |  | inactive | 
O=C(COc1ccc(F)cc1)NCc1ccc2c(c1)CCN2C(=O)c1ccc(F)cc1 |  | inactive | 
Cc1ccc(C)c(N2CCN(c3nc4ccccc4n4nnnc34)CC2)c1 | inactive: -7.66% |  | 
COc1ccc(CCNC(=O)c2c3c(nc4ccccc24)C(=O)N(C2CCCCC2)C3)cc1OC | inactive: 0.754% |  | 
CCN1c2ccccc2-c2nc(SCC(=O)Nc3cc(C)c(Cl)cc3OC)ncc2S1(=O)=O | inactive: 1.32% |  | 
Oc1c(C(c2cccc(Cl)c2)N2CCOCC2)sc2nc(-c3ccco3)nn12 (configuration not stated) | inactive: -8.66% |  | 
COCCn1c(=O)[nH]c2cc(C(=O)N3CCN(c4ccc(F)cc4)CC3)ccc2c1=O |  | inactive | 
Cc1cc(Br)cc(C)c1OCC(=O)Nc1ccc(S(=O)(=O)Nc2ncccn2)cc1 | inactive: -8.03% |  | 

SMILES | activity change, negative = inhibition | outcome | Potency
COC(=O)c1ccccc1NC(=O)C1CCCN(C(=O)c2cnn(-c3ccc(F)cc3)c2-n2cccc2)C1 (configuration not stated) |  | inactive | 
CCc1nn(CC(=O)NCC(C)c2ccccc2)c(=O)c2cc3c(OC)cccc3n12 (configuration not stated) | inactive: 9.86% |  | 
Cc1cc(-n2c(C)nc3ccccc3c2=O)ccc1NC(=O)c1cccc([N+](=O)[O-])c1C | inactive: 1.57% |  | 
Cc1cccc(OCC(=O)Nc2ccc(S(=O)(=O)N(Cc3ccccc3)c3ccccc3)cc2)c1 |  | inactive | 
O=C(NCCc1csc(-c2ccc(C(F)(F)F)cc2)n1)c1ccccc1Cl | inactive: -8% |  | 
CCOCCc1nn2c(=O)cc(COC(=O)c3ccccc3Br)nc2s1 | inactive: 12.2% |  | 
COc1cc2c(NC3CCN(C(C)C)CC3)nc(C3CCCCC3)nc2cc1OCCCN1CCCC1 |  |  | active: 11.8 µM
Cc1oc(-c2ccccc2F)nc1Cn1c(SCc2cccc(Cl)c2)nc2ccncc21 | inactive: -6.65% |  | 
N#C/C(=C\c1ccc(-c2ccc(Br)cc2)o1)C(=O)Nc1ccccc1O | inactive: -0.955% |  | 
Cc1ccc(-n2ncc3c(N4CCN(Cc5ccccc5)CC4)ncnc32)cc1C |  | inactive | 
CCCn1c(=N)c(C(=O)NCc2ccccc2)cc2c(=O)n3cccc(C)c3nc21 |  | inactive | 
Cc1ccc(CNC(=O)C(=O)NCC(c2cccs2)S(=O)(=O)c2ccccc2)cc1 (configuration not stated) |  | inactive | 
COc1ccc(-c2noc(CNC(=O)c3ccc(OC)cc3OC)n2)cc1 |  | inactive | 
Cc1ccc(C)c(NC(=O)C2CCCN2S(=O)(=O)c2ccc3c(c2)CCCC(=O)N3)c1 (configuration not stated) | inactive: -7.38% |  | 
CCC1=Nc2cc(C(=O)N3CCC(C)CC3)ccc2Sc2ccc(C)cc21 | inactive: -29.3% |  | 
Cc1cccc(CNC(=O)C2CCN(S(=O)(=O)c3cccc4nonc34)CC2)c1 | inactive: -7.64% |  | 
CCCC(=O)OCc1cnc(C)c2oc(=O)c(C(=O)Nc3ccc(F)cc3C)cc12 | inactive: -1.88% |  | 
N#C/C(=C\c1ccccc1)c1nc(-c2cc3c(ccc4ccccc43)oc2=O)cs1 |  | inactive | 
CCCCN(CC)CCNC(=O)c1nn(-c2ccc(OC)cc2)c(=O)c2c1c1ccccc1n2C | inactive: 3.13% |  | 
CCOC(=O)c1c(NC(=O)COc2ccc(OC)cc2)sc(C(=O)N(CC)CC)c1C |  | inactive | 
Cc1ccc2nc(N3CCN(c4ccc(F)cc4)CC3)c3nnnn3c2c1 | inactive: -3.73% |  | 
CCOc1ccc(CCNC(=O)C2CC(=O)N(CCc3ccc(OC)c(OC)c3)C2)cc1OCC (configuration not stated) | inactive: -3.27% |  | 
COc1cccc(-c2noc(COc3cccc(C)c3C)n2)c1 | inactive: 6.66% |  | 
CCN(CC)CCCNC(=O)c1ccc2c(c1)NC(=O)C(CS(=O)(=O)Cc1ccc(F)cc1Cl)N2 (configuration not stated) | inactive: -8.49% |  | 
CCOC(=O)c1cccc(NC(=O)Cn2cnc3nc4c(cc3c2=O)CCCC4)c1 |  | inactive | 

SMILES | activity change, negative = inhibition | outcome | Potency
CCc1ccc(NS(=O)(=O)c2ccc3[nH]cc(C(=O)NCCc4ccccc4)c(=O)c3c2)cc1 | inactive: 0.646% |  | 
COc1ccc(N2CC(c3nc(-c4ccccc4C)no3)CC2=O)cc1Cl (configuration not stated) | inactive: -4.61% |  | 
COCCNC(=O)c1sc2nc3n(c(=O)c2c1C)CCC3 | inactive: 6.15% |  | 
Cc1nc(-c2ccc(Cl)cc2)sc1CCNC(=O)C(=O)Nc1ccccc1C#N | inactive: 0.987% |  | 
COC(=O)c1ccc(NC(=O)C(c2ccccc2)N2Cc3ccccc3C2=O)cc1 (configuration not stated) | inactive: 16.2% |  | 
Cc1cccc(CCNC(=O)CCc2c(C)nc3c(-c4ccc(F)cc4)c(C)nn3c2C)c1 |  | inactive | 
Cc1ccc(-c2onc(C)c2C)cc1S(=O)(=O)N1CCc2ccccc21 |  | inactive | 
CCCCN(C(=O)Nc1ccc(OCC)cc1)C1CCN(C(C)=O)CC1 | inactive: 9.47% |  | 
COCCn1c(SCC(=O)Nc2ccc(Br)cc2)nc2c([nH]c3ccccc32)c1=O | inactive: -11.7% |  | 
COc1ccc(NC(=O)Cn2c(SCc3c(F)cccc3Cl)nc3ccncc32)cc1OC |  | inactive | 
CCCc1ccc(OC(=O)c2sc3ncn(Cc4cccc(F)c4)c(=O)c3c2C)cc1 | inactive: 11.2% |  | 
Cc1cc(C)cc(NC(=O)C2CCCN(c3nnc(-n4c(C)ccc4C)s3)C2)c1 (configuration not stated) |  | inactive | 
COc1ccc(N2CCN(C(=O)c3cc4c(s3)-c3c(C)cccc3OC4)CC2)cc1 | inactive: -1.91% |  | 
Cc1ccc(NC(=O)C2CCCN(S(=O)(=O)c3ccc(C)cc3)C2)cc1 (configuration not stated) | inactive: 1.17% |  | 
CCOC(=O)c1c(S(=O)(=O)N2CCN(c3cc(Cl)ccc3C)CC2)c(C)n(C)c1C | inactive: 0.273% |  | 
CCC(Sc1nc2n[nH]c(C)c2c(=N)n1-c1ccc(Br)cc1)C(=O)N(CC)CC (configuration not stated) | inactive: -1.23% |  | 
CCN(CC)c1ccc(NC(=O)C2CCCN(S(=O)(=O)c3ccc4c(c3)oc(=O)n4C)C2)c(C)c1 (configuration not stated) |  | inactive | 
Cc1ccc(NC(=O)Cn2nc(-c3ccc(Cl)cc3)c3ccccc3c2=O)cc1 | inactive: 1.27% |  | 
COc1ccccc1-c1ncnn1-c1sc2c(c1C#N)CCCCC2 | inactive: 6.76% |  | 
COc1cc(NS(=O)(=O)c2ccc3c(c2)OCC(C(=O)N2CCCC2)O3)cc(OC)c1 (configuration not stated) | inactive: 1.69% |  | 
COc1ccc(NC(=O)Cn2ncc3c4ccccc4n(Cc4ccccc4)c3c2=O)cc1OC | inactive: 0.646% |  | 
Cc1ccc(Nc2c3c(nc4ccccc24)CCC3)cc1F | inactive: -21.7% |  | 
CCc1ccc(-c2nc3cc(NC(=O)c4ccc(F)cc4)ccc3o2)cc1 | inactive: 1.85% |  | 
Cc1ccc(CNC(=O)CCN2C(=O)C(C)Oc3ccc(C)cc32)cc1 (configuration not stated) | inactive: -11.3% |  | 
Cc1cccc(COc2ccc(-c3cc(C(F)(F)F)n4nc(C)cc4n3)cc2)c1 | inactive: -7.77% |  | 

SMILES | activity change, negative = inhibition | outcome | Potency
CCCCNC(=O)c1ccc(-c2nc(CN3CCc4ccccc43)c(C)o2)cc1 |  | inactive | 
Cc1c(Cl)cccc1NC(=O)CCS(=O)(=O)c1cccc2nsnc12 |  | inactive | 
COc1ccc(OC)c(S(=O)(=O)NCCc2sc(C)nc2C)c1 |  | inactive | 
NNCCc1ccccc1 | inactive: 7.37% |  | 
COc1cccc(-c2nn(C)c3sc(C(=O)N4CCN(c5cccc(C(F)(F)F)c5)CC4)cc23)c1 |  | inactive | 
Cc1cn2c(=O)cc(COC(=O)COc3ccc(F)cc3)nc2s1 | inactive: 1.48% |  | 
Cc1ccc(NC(=O)CCNS(=O)(=O)c2cccs2)cc1F |  | inactive | 
COc1ccccc1N(CC(=O)NCCSc1ccccc1)S(=O)(=O)c1ccc(C)cc1 | inactive: 4.33% |  | 
COC1(C(F)(F)F)NC(=O)N(c2ccc(F)cc2)C1=O (configuration not stated) | inactive: 2.77% |  | 
Cc1cccc(-n2c3nc(=O)n(C)c(=O)c-3cc3c(C)nn(-c4ccccc4)c32)c1C | inactive: 7.51% |  | 
COc1cccc(CCNC(=O)c2cnc3sc(N4CCCC4)nn3c2=O)c1 | inactive: -1.76% |  | 
COc1ccc(-n2c(=O)c3c(c4cc(OC)ccc4n3C)n(Cc3c(F)cccc3Cl)c2=O)cc1 | inactive: 3.06% |  | 
CSc1ncc2c(n1)-c1ccccc1N(Cc1ccccc1C)S2(=O)=O | inactive: 10.9% |  | 
Fc1ccc(NCc2nc3ccccc3n2CCOc2ccccc2Cl)cc1 | inactive: -14.4% |  | 
CC1CCc2c(sc3nnn(CC(=O)Nc4ccccc4Cl)c(=O)c23)C1 (configuration not stated) | inactive: 2.19% |  | 
Cc1ccc(OCCSc2nc3ccc(NC(=O)COc4ccc(C)cc4)cc3s2)cc1 | inactive: -9.25% |  | 
CCOC(=O)c1cnn(-c2cccc(Cl)c2)c1C1CCN(C(=O)OC(C)(C)C)CC1 |  | inactive | 
COc1ccc(NC(=O)N2CCC(n3c(C)nc4cccnc43)CC2)cc1OC | inactive: 1.32% |  | 
CCOC(=O)C1=C(CN(CC)Cc2ccccc2)NC(=O)NC1c1ccc(Cl)cc1 (configuration not stated) |  | inactive | 
COc1ccc(Cl)cc1NC(=O)N1CCC2(CC1)Oc1ccccc1C(=O)N2Cc1ccc(F)cc1 | inactive: -7.34% |  | 
CSc1nc2sc3c(c2c(=O)n1-c1ccc(C)cc1)CCCC3 | inactive: 12.2% |  | 
O=C(Cn1ccn(-c2ccc(F)c(F)c2)c(=O)c1=O)NCc1ccccc1 | inactive: 7.02% |  | 
